Test [1] concerns the target GFP-CDK5RAP2 wild-type (human) (UniProt Q96SN8). Briefly: co-IP; anti-GFP immunoprecipitation from HEK293T cells co-expressing wild-type or mutant GFP-CDK5RAP2 with Myc-DLC8; blots with anti-Myc and anti-GFP.
Test [2] deals with GFP-CDK5RAP2 (Q874A/T875A) (human) (UniProt Q96SN8). Described as above.
The target of test [3] is T1, FLAG-CDK5RAP2 (706–1241) (human) (UniProt Q96SN8).
T1 sequence: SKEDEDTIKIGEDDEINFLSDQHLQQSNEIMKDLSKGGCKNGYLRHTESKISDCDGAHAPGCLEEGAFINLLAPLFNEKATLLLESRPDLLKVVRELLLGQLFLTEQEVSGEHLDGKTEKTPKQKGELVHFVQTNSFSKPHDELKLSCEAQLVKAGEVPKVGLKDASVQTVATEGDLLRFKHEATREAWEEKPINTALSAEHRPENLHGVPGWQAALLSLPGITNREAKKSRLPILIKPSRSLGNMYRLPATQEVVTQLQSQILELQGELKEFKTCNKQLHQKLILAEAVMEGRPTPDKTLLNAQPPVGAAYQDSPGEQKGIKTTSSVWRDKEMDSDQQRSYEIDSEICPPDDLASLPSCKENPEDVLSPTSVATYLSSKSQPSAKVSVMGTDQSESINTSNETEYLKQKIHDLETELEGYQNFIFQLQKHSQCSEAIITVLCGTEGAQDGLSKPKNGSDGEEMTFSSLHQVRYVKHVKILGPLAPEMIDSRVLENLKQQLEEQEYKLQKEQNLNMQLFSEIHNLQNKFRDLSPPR
Briefly: co-IP; anti-FLAG immunoprecipitation from HEK293T cells co-transfected with Myc-DLC8 and FLAG-tagged CDK5RAP2 fragments; blots with anti-FLAG and anti-Myc.

By UniProt entry, the sequences of proteins in these tests, tags left out.
UniProt P63167: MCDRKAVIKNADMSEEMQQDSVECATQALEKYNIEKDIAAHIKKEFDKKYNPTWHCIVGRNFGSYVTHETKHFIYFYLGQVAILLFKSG

The target of test [4] is T2, FLAG-CDK5RAP2 (706–925) (human) (UniProt Q96SN8).
T2 sequence: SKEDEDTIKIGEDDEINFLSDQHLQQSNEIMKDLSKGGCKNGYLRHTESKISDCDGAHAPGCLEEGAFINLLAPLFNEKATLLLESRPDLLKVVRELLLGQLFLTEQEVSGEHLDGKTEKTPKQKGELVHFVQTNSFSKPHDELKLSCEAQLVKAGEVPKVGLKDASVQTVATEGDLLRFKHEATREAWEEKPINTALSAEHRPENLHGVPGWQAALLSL
The test is described as above.

The next test deals with GST-DLC8 (UniProt P63167). Briefly: pull-down; 5 μg recombinant proteins mixed in 200 μl binding buffer (25 mM Tris-HCl pH 7.4, 0.5% NP40, 100 mM NaCl, 5 mM MgCl2, 1 mg/ml BSA), 4°C, 1 h; GST proteins retrieved with GSH-Sepharose; anti-His6 blot; both purified.

No constants are given. Whether binding was seen depends on the method and setting. For some assays here: Binding seen in cells or lysates may run through a third protein. Some binding calls cover weakened binding; strength is not graded here. For some assays here: Sequences can lack the tags named with a protein.

With Myc-DLC8 (from UniProt P63167 1-89), the binding entry in test [1] is reported as “binds”; in test [2], “no binding”; in test [3], “binds”; in test [4] it was “binds”.

B1: His6-CDK5RAP2 (706–925) (domain or fragment, UniProt Q96SN8 706-925)
chain: T2 sequence
On to B1, for which the binding entry in the test with GST-DLC8 was “binds”.

Values taken from PMC3714271.
